In article PMC12136788:
Some of the results follow.

T1: UNK ZnF1-3 (human, UniProt Q9C0B0 31-174)
T1 sequence: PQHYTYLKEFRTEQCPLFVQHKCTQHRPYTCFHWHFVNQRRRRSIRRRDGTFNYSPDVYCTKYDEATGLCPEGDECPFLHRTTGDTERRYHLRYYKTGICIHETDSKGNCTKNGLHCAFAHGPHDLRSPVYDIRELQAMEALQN

B1: chr12:114378518:114378519:+_ENSMUSG00000006356_ENSMUST00000084882|mus_mus|FALSE|FALSE (ssRNA)
RNA: GGGAGUUCUACAGUCCGACGAUCCCCGGAGUGAGGUGGCGUCCACAGGGAUCGCCCGAGGAUUCCAUGGCCACAUAGUGAUCUCUAGCUGUAGAACGGACUUGGGAUCCCCAGCUUUAGGUCUCGAGGUCCGGGCCUGCUCGUCAACAGAGGAUUGAGCAUCA
B2: chr15:59323432:59323433:+_ENSG00000157450_ENST00000557998|hu_hu|motif|central (ssRNA)
RNA: GGGAGUUCUACAGUCCGACGAUCCACAGUAUCAGAAUCUCCAAAAUGCAGACUAGAUGAAGGAGAAGAAAGACAAUCACGGAAAGAGGAAUCAUUAUCUUCAUCACUUGGUGUCCCUAGGUGUUGCCUCAGUCCUAAUAUUCCCAACAGAGGAUUGAGCAUCA
B3: 44688942_44689062_355_3pUTR_ENSMUSG00000002028_ENSMUST00000002095|mouse|control|control (ssRNA)
RNA: GGGAGUUCUACAGUCCGACGAUCCGCCUCCCCCGCCGCUCUCCCCAAACACUGCCCGGAACCGGCGCAGGUUGGUGCCGAUGGCGGCCGAGACCUGCAGCGCCGCGUCGAAGCCCGGGCCCACCCGGAGCAGGGCCGGCCCUGCAACAGAGGAUUGAGCAUCA
B4: chr4:76721835:76721836:+_ENSG00000138768_ENST00000264904|hu_mus|hu_hu_hu_mus_True|8_78 (ssRNA)
RNA: GGGAGUUCUACAGUCCGACGAUCGUUUGGCUGGGGUUUCUGAGACGCUCUGGAAUAAACUCAUGUUUUGCUAAUAAAUCCUAGUUUCUCUAUGAAAUUCUCUUUGCCAAUCCUCUUCUCUAUUAGUGUUUUAGCUUUCUCUUUCAACAGAGGAUUGAGCAUCA
B5: chr7:151048522:151048523:+_ENSG00000013374_ENST00000566856|hu_mus|hu_hu_hu_mus_True|38_108 (ssRNA)
RNA: GGGAGUUCUACAGUCCGACGAUCCUGCUUCUUAUUUAUUACGAUCUUGAUGUAAUUUUCUUGAAAUCCGAAAGUUUCAGCUAUUUGACACCUCAGGUCUCUGCCAGUGACAUGCAAGCGGGUCUCCAACAAGCUUUUCUUAUCCAACAGAGGAUUGAGCAUCA
B6: chr1:180251914:180251915:+_ENSMUSG00000026500_ENSMUST00000027781|mus_mus|motif|central (ssRNA)
RNA: GGGAGUUCUACAGUCCGACGAUCGAUCCUAAUGAGCCAUAGAGUAUAGAUUCUCGAGCACAUGGAGUGUUCUCAACAUCGGAAAUACCUAGGAGCUUGAAGGGCUUUUUCUCCGUCUCGUGGGGCUCCGGGGCGGCCGCCAUGCAACAGAGGAUUGAGCAUCA

Target: T1, UNK ZnF1-3
Experiment: nsRBNS (natural sequence RNA bind-n-seq); RBNS binding buffer (assumed for nsRBNS): 25 mM Tris pH 7.5, 150 mM KCl, 3 mM MgCl2, 0.01% Triton X-100, 500 ug/ml BSA, 20 U/ml SUPERase-In, 4 C; UNK is unkempt and MSI1 is Musashi-1; names of the RNAs are library labels; protein concentration not given here; high values mean tight binding

Row | Binder | binding signal [enrichment R]
1 | B1 | 0.585
2 | B2 | 1.53
3 | B3 | 0.681
4 | B4 | 0.646
5 | B5 | 0.867
6 | B6 | 1
